Results from ChEMBL document CHEMBL4888484, “Replenishing the malaria drug discovery pipeline: Screening and hit evaluation of the MMV Hit Generation Library 1 (HGL1) against asexual blood stage Plasmodium falciparum ,using a nano luciferase reporter read-out” (2022).
Among all 150,000 compounds or so, about 540 (0.36%) showed an effect of 50% or more. Some of the results follow.

Tested on: Plasmodium falciparum
Test: Primary screen in NF54 nanoGlo assay, in single point, at 2uM, 72h; a lower Z score goes with more inhibition
Assay type: functional, Erythrocyte
Conditions: timepoint 72 hour

Row | Structure (SMILES) | % Inhibition | Z score | % Inhibition (2 µM)
1 | CCCOc1ccc(C(=O)N2CCCO[C@@H](C)C2)cc1 | 1% | -0.17 | 
2 | CCOc1cccc(Cl)c1CN1CC[C@H](c2nc(C)no2)C1 | 5% | -1.01 | 
3 | c1cnn(-c2ccc(CN3CCOC4(CCOCC4)C3)cc2)c1 | -1% | 0.14 | 
4 | Cc1cc(-c2nc(-c3ccccc3)nn2-c2ccccn2)c(=O)n(C)c1C | -10% | 1.4 | 
5 | Cc1ccc(S(=O)(=O)Nc2ccc(C)n(CC(=O)NCC(C)C)c2=O)cc1 | -22% | 3.01 | 
6 | COC(=O)c1ccc(C(=O)NC2CCN(c3cc4c(nn3)CCCC4)CC2)cc1 | -16% | 2.71 | 
7 | CC1CCN(S(=O)(=O)CC(=O)Nc2ccc(OCc3nccn3C)cc2)CC1 | -5% | 0.84 | 
8 | Cc1ccsc1CN(C)C(=O)[C@H]1CCc2nnn(C)c2C1 | -4% | 0.77 | 
9 | CCCN(C(=O)[C@H]1CC(=O)N(C(C)C)C1)C1CC1 | 0% | -0.04 | 
10 | Cc1nc(N2CCC(C(=O)NC[C@H]3CCc4ccccc4O3)CC2)nc2cc(S(C)(=O)=O)ccc12 | -16% | 1.93 | 
11 | CC(C)CC[C@H]1CCCN1C(=O)c1ccc2[nH]c(=O)n(C)c2c1 | 3% | -0.5 | 
12 | Cc1noc(C)c1CN(C)C(=O)c1c[nH]nn1 | -5% | 0.76 | 
13 | COCCN1C[C@]2(CCCN(C(=O)Cc3ccc(O)cc3)C2)CCC1=O | -12% | 2.44 | 
14 | Cc1ccc2nc(-c3cccc(Cl)c3)c(NC(=O)COc3ccc(Cl)cc3)n2c1 | 16% | -1.79 | 
15 | COc1cccc(CCc2ccccc2OC[C@H](CN(C)C)OC(=O)CCC(=O)O)c1 |  |  | 7%
16 | O=C(NC1CCCCC1)c1cc2n(n1)CCCC2 | -14% | 1.56 | 
17 | O=C(Nc1cccc(-n2cn[nH]c2=O)c1)C1CC12CCOC2 (configuration not stated) | -16% | 1.49 | 
18 | Cc1ccc(C(=O)N2CCC(N3C(=O)N(Cc4cccnc4)C[C@]34CCOC4)CC2)cc1 | -4% | 0.58 | 
19 | CCN(C1CCN(C(=O)Nc2ccc3sncc3c2)CC1)S(C)(=O)=O | -8% | 1.18 | 
20 | Cc1ccc(O)c(NS(=O)(=O)N(C)C(C)C)c1 | -4% | 0.8 | 
21 | CC(C)[C@@H](C(=O)N1CCC2(CC1)CN(C)CCN2C)c1ccc(Cl)cc1 | 1% | -0.11 | 

Row | Structure (SMILES) | % Inhibition | Z score | % Inhibition (2 µM)
22 | C[C@H](NC(=O)C(=O)N1CCCCC1)c1nncn1C | 20% | -2.54 | 
23 | Cc1noc(C)c1CC(=O)NC1(c2cccs2)CCCC1 | 6% | -0.87 | 
24 | COc1cccc([C@@H]2CNC(=O)c3nc(-c4ccc(C(=O)N(C)C)o4)[nH]c3C2)c1 | -4% | 0.72 | 
25 | COc1cccc(C2C(S(=O)(=O)N(C)C(C)C)CON2C)c1OC (configuration not stated) | -22% | 2.37 | 
26 | CC(C)CN1CCN(S(=O)(=O)C2CCC(C(F)(F)F)CC2)CC1=O (configuration not stated) | -10% | 1.32 | 
27 | CCOC(=O)C[C@H](NC(=O)c1ccc(NC(=O)C2CCC2)cc1)C(F)(F)F | 5% | -0.66 | 
28 | O=C(N[C@H]1CCc2n[nH]c(=O)cc2C1)c1cc(C2CC2)n[nH]1 | -20% | 3.37 | 
29 | Cc1cccc(-c2noc(-c3cccn4c(=O)n(CC(=O)Nc5cccc(C(F)(F)F)c5)nc34)n2)c1 | -7% | 1.08 | 
30 | O=C(c1nccc2ccccc12)N1CC[C@@H](n2c(=O)[nH]c3cccnc32)C1 | -3% | 0.62 | 
31 | CC(=Cc1ccc(C)cc1)C(=O)N1C[C@]2(CO)CCCC[C@]2(CO)C1 | -2% | 0.21 | 
32 | C[C@@H](CNCc1ncc[nH]1)Oc1ccccc1Br | -9% | 0.92 | 
33 | CC1C(=O)N(CC(=O)Nc2cccc(N3CCCC3=O)c2)C(=O)C1C (configuration not stated) | 2% | -0.33 | 
34 | CCN1CCCn2cc(S(=O)(=O)Nc3cccc(Cl)c3)cc2C1=O | -8% | 0.92 | 
35 | C[C@H]1CCN(Cc2ccccc2)CCN1C(=O)CCc1nnc[nH]1 | -11% | 1.15 | 
36 | CCCCCC1CCC(c2ccc(C(=O)Nc3cccnc3)cc2)CC1 (configuration not stated) | -4% | 0.5 | 
37 | CCCn1cc(CN2CCN(Cc3cc(C)cc(C)c3)C(=O)C2)c(C)n1 | -7% | 0.88 | 
38 | CCOc1ncccc1C(=O)NC1CCN(c2cc(=O)[nH]c(N)n2)CC1 | -9% | 1 | 
39 | CC12CCCC[C@@H]1CCC1C2CCC2(C)C1CC[C@@]2(O)CNCCO (some centres not stated) | -4% | 0.53 | 
40 | O=C(CN1CCO[C@H](c2ccc(Cl)cc2)C1)NCc1ccccn1 | -1% | 0.07 | 
41 | Cc1noc(C[C@H]2CCOC3(CCN(C(=O)CCc4ccccc4)CC3)C2)n1 | -10% | 1.36 | 
42 | C[C@]1(CNC(=O)Cc2cn3c(n2)CCCC3)CN(CC(=O)NC2CC2)CCO1 | 15% | -1.96 | 

Row | Structure (SMILES) | % Inhibition | Z score | % Inhibition (2 µM)
43 | CCc1nc(-c2ccccc2)nc(N2CCN(C(=O)c3cccs3)CC2)c1Cc1ccc(F)cc1 | -13% | 1.96 | 
44 | CCC(=O)Nc1c(S(=O)(=O)c2ccc(C)cc2)c(C)c(C)n1Cc1ccco1 | -9% | 1.12 | 
45 | Cc1cc(S(=O)(=O)N(C)C[C@H](C)O)c(C)o1 | -4% | 0.53 | 
46 | CCc1nc(CN2C(=O)C3CC=CCC3C2=O)no1 (configuration not stated) | 4% | -0.54 | 
47 | CCOCCN1CCN(C(=O)Nc2ccncc2F)C[C@@H]1CC | 3% | -0.57 | 
48 | CCn1nc(C)c(C(=O)Nc2nnc3cc(C)ccn23)c1C | -20% | 2.16 | 
49 | Nc1cc(F)ccc1-c1nc(C2CCCCC2)n[nH]1 | -1% | 0.24 | 
50 | Cn1n[n+](CCCCC(Cl)(Cl)Cl)c2ccccc21 | 65% | -4.82 | 
51 | C[C@@H](CC#N)NS(=O)(=O)Cc1ccc(F)cc1Br | -9% | 1.74 | 
52 | COc1cccc([C@@H]2CCCCN2C(=O)c2cc(C(C)C)on2)c1 | -6% | 0.79 | 
53 | CCOC1(C(=O)N[C@H](C)C(=O)N2Cc3ccccc3C2)CCCC1 | -1% | 0.2 | 
54 | Cc1ccc(C(=O)N2CCc3[nH]nc(C(=O)N4CCC(Cc5ccccc5)CC4)c3C2)cc1C | -4% | 0.52 | 
55 | O=C(NCCn1cccnc1=O)c1ccco1 | 14% | -1.84 | 
56 | O=C(CCc1ccc(S(=O)(=O)N2CCCC2)cc1)Oc1ccccc1 | -7% | 0.92 | 
57 | O=C(c1cn(Cc2ccccc2)nc1OCc1ccccc1)N1CCOCC1 | -15% | 1.72 | 
58 | CCn1nccc1[C@@H]1CCCN1C(=O)Nc1ccc(C)c(C)c1 | 3% | -0.53 | 
59 | CN(CC#N)Cc1cccc(C#N)c1F | -19% | 2.36 | 
60 | Cc1nn(C(C)C)cc1CNc1nncn1C1CC1 | 9% | -1.64 | 
61 | Cc1cc2ncc(NC(=O)c3cc(C)on3)cn2n1 | -17% | 2.17 | 
62 | Cn1cnc(-c2noc(Cc3ccc(F)c(F)c3)n2)c1 | -2% | 0.4 | 
63 | CCCNC(=O)c1cccnc1-c1cccc(C(=O)N2CC=C(C)CC2)c1 | -8% | 1.47 | 

Row | Structure (SMILES) | % Inhibition | Z score | % Inhibition (2 µM)
64 | Cc1nc(N2CC(Cn3nc4c(cc3=O)CCC4)C2)c2cnn(C)c2n1 | -3% | 0.54 | 
65 | O=S1(=O)C[C@H](N2CCOCC2)[C@@H](S(=O)(=O)c2ccccc2)C1 | -6% | 0.73 | 
66 | Cc1cc(C)n(-c2ccc(Oc3ccccc3)c(S(=O)(=O)O)c2)n1 | 6% | -0.7 | 
67 | COc1ccc2nc(NC(=O)c3c(C)noc3-c3ccc(C)cc3)sc2c1 | -2% | 0.3 | 
68 | O=C(NCCc1ccccn1)c1cc2n(n1)CCN(Cc1ccccc1)C2=O | -5% | 0.85 | 
69 | COCCN1C[C@]2(CCOC2)N(C2CCN(C(=O)c3ccc(C)s3)CC2)C1=O | -2% | 0.24 | 
70 | COc1cccc(CNC(=O)c2ccc(Oc3ccccc3)cc2)c1 | -14% | 2.62 | 
71 | CC(=O)Oc1cccc(N(C(C)=O)c2nc(OC(C)=O)c(C)s2)c1 | -9% | 1.22 | 
72 | COc1ccc(CN2CCCC[C@@H]2CCc2ccccn2)cn1 | -1% | 0.07 | 
73 | c1cc(-c2nc3cc4ccccc4cc3[nH]2)nc(-c2nc3cc4ccccc4cc3[nH]2)c1 | 100% | -18.05 | 
74 | COC(=O)C[C@H](c1cccnc1)c1c(Cc2ccc3c(c2)CCO3)[nH][nH]c1=O | -5% | 0.6 | 
75 | CC(C)(C)OC(=O)N1CCC2CCC(=O)C1C2 (configuration not stated) | -3% | 0.52 | 
76 | CO[C@@H](COc1ccccc1-c1nnc[nH]1)C1CCCC1 | 10% | -1.83 | 
77 | O=C(CCn1cncn1)N1CCC[C@H](c2ncc3n2CCCC3)C1 | -2% | 0.3 | 
78 | CC(C)n1ccc(CNC(=O)c2cn(C)nc2-c2ccco2)n1 | 4% | -0.5 | 
79 | Cc1cnc(C(=O)N2CC(F)(F)C[C@H]2Cn2cc(C(=O)NCc3ccccc3)nn2)cn1 | 32% | -3.57 | 
80 | COc1c(C)cc(C(=O)N2CC3CCCC3C2C(=O)O)cc1C (configuration not stated) | 7% | -0.73 | 
81 | CC(C)N(Cc1ccccc1)Cc1c[nH]nn1 | 30% | -3.4 | 
82 | c1cncc(CCn2ccnc2-c2cc3n(n2)CCCNC3)c1 | -6% | 0.79 | 
83 | CC1(C)CC(O)CC(C)(C)N1C[C@H](O)COc1cccc2ccccc12 | -8% | 0.72 | 
84 | CN(C)S(=O)(=O)NC[C@H](Cc1cccc(F)c1)N1CCCC1=O | -6% | 0.93 | 
